Where “and” joins values, the source holds several entries; their conditions need not be identical. Equal entries are not always repeated. The whole screen tested about 260,000 compounds, of which about 960 (0.37%) were called active. The shares of active, inactive and inconclusive entries below differ from those in the screen.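 The calls were made as follows: active = mean E-selectin-positive cell signal at least 10% of the positive control, reached in at least 60% of replicates, without over 20% cell loss; inconclusive = no rule given, readout overlaps actives, possibly toxicity-flagged; inactive = the rest, including those meeting only one limit.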 A structure can be active in one record and inactive in another.
biological target: E-selectin (Homo sapiens) (UniProt P16581); assay: inducers of endothelial E-selectin expression – imaging, HUVEC, immunofluorescence imaging, single point, primary screen (AID 686992); conditions: at 7.58 µM, stronger effect = higher value, normalized: neutral wells 0, TNF-alpha wells 100;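 also: signal is the percent of cells scored E-selectin positive by PE staining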
Chain of UniProt P16581 (P16581 whole entry, looked up): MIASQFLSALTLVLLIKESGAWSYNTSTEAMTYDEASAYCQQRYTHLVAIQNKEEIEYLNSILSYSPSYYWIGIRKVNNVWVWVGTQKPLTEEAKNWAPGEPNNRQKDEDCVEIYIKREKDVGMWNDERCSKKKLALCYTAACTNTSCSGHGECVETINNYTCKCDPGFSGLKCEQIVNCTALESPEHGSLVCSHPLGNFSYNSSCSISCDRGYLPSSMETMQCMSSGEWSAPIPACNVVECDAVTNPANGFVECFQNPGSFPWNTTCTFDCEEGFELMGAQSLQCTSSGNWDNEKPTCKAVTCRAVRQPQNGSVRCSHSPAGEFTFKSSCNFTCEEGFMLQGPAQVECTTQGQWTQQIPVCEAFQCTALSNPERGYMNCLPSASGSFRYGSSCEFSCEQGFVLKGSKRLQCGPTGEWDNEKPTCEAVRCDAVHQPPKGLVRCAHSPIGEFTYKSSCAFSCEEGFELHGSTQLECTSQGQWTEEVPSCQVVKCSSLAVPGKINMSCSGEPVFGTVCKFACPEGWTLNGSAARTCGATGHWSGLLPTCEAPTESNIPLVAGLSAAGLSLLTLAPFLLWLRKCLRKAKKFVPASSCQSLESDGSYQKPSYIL
Summary of the method: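 System: HUVEC, human umbilical vein endothelial cells; quantity: 3,000 cells/well; buffer or medium: EGM-2 medium, gelatin-coated wells; dosing: single-point compound dose; detection: immunofluorescence imaging; evaluation: % PE-positive cells; benchmarks: TNF-alpha, DMSO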

Row | Compound | activation
1 | CN(C)c1ccccc1 | inactive: 0.404%
2 | CN1C(=O)C(=Cc2coc3ccccc3c2=O)C(=O)N(C)C1=O | active: 36.3%
3 | COc1ccc(N2C(=O)/C(=C/c3ccc(N(C)C)o3)C(=O)NC2=S)cc1 | inconclusive: 35.5%
4 | c1ccc(Cc2cnc(N3CCNCC3)nc2)cc1 | inconclusive: 55.1%
5 | O=C(CCn1nc(-c2ccc(Cl)cc2)ccc1=O)N1CCC2(CC1)OCCO2 | inconclusive: 55.9%
6 | Clc1ccc(COC(Cn2ccnc2)c2ccc(Cl)cc2Cl)c(Cl)c1 (configuration not stated) | inconclusive: 92.3%
7 | NCCc1ccc(S(N)(=O)=O)cc1 | inactive: 0.0425%
8 | c1ccc(-c2ccc(CN3Cc4ccccc4-n4nncc4C3)cc2)cc1 | inconclusive: 47.1%
9 | Cc1ccc(C(O)(C(=O)OC(C)C)C(O)c2ccc(F)cc2)cc1 (configuration not stated) | inconclusive: 26.1%
10 | Cc1ccc(OC(F)F)c(N2C(=O)C3C4CCC(O4)C3C2=O)c1 (configuration not stated) | active: 34.7%
11 | CCC(=NCCN1CCOCC1)c1c(O)n(C2CCCCC2)c(=O)[nH]c1=O | active: 30.2%
12 | CCN(CC)C(=O)c1ccc(NC(=O)c2cccc(C(F)(F)F)c2)cc1 | inactive: -0.767%
13 | C=COCCn1c(C)c(C(C)=O)c2cc(O)ccc21 | active: 56.5%
14 | CC1c2ccccc2-n2nncc2CN1CC1CCCCC1 (configuration not stated) | inactive: -0.221%
15 | CCC1(C2=NCCN2)Cc2ccccc2O1 (configuration not stated) | inconclusive: 33.9%
16 | COC(=O)[C@@H]1[C@@H](CO)[C@@H]2Cn3c(ccc(-c4ccccc4F)c3=O)[C@H]1N2CC1CCCC1 | inactive: -0.579%
17 | OC1CCCCC1N1CCC(c2ccccc2)CC1 (configuration not stated) | inconclusive: 38.5%
18 | CCCCC(=O)N/N=C/c1c(O)n(Cc2ccc(F)cc2)c(=O)[nH]c1=O | inconclusive: 34.3%
19 | C=CCn1c(O)c(C(CC)=Nc2ccc(NC(C)=O)cc2)c(=O)[nH]c1=O | inconclusive: 36%

Row | Compound | activation
20 | O=c1[nH]c2ccccc2n1C1CCN(C(c2ccnc3ccccc23)c2nnnn2-c2ccc3c(c2)OCCO3)CC1 (configuration not stated) | inconclusive: 51.7%
21 | C=CCn1c(O)c(C(C)=NCCCn2ccnc2)c(=O)[nH]c1=O | inconclusive: 40.9%
22 | C[N+](C)(C)CC(=O)O | inconclusive: 86.3%
23 | CC(NC1=NCCS1)c1ccccc1 (configuration not stated) | inconclusive: 70.1%
24 | CNC(=O)OCc1n(C)cc[n+]1C | inactive: 3.03%
25 | CCCC[N+]12CCC(CC1)C(C(O)(c1ccccc1)c1ccccc1)C2 (configuration not stated) | active: 53.4%
26 | CCOC(=O)[C@]12Cc3cc(Cl)ccc3[C@H]1N(Cc1ccccc1)C(=O)c1cc(OC)ccc12 | inactive: -0.217%
27 | O=c1[nH]c(O)c(C=Nc2ccc(F)c(Cl)c2)c(=O)[nH]1 | inconclusive: 27.4%
28 | CCOC(=O)[C@]12Cc3cc4ccccc4cc3[C@H]1N(Cc1ccccc1)C(=O)c1cc(OC)ccc12 | inconclusive: 67.2%
29 | Cc1nn(Cc2ccccc2)c(C)c1C=C1C(=O)NC(=S)NC1=O | inconclusive: 48.9%
30 | CCN1C[C@]2(COC)CC[C@H](OC)[C@@]34C1[C@]1(OCO[C@@]15C[C@H](OC)[C@H]1C[C@@H]3[C@@H]5[C@H]1OC)[C@@H](O)[C@H]24 | inconclusive: 28.4%
31 | c1ccc2nc(N3CCNCC3)ccc2c1 | active: 70.3% and inactive: 2.09%
32 | CC1(C)OC(c2ccccc2)=C/C(=C/C=C2C(=O)NC(=S)NC2=O)O1 | active: 533%
33 | O=c1c2ccccc2nc(-c2ccccc2)n1-c1ccccc1 | inactive: 4.38%
34 | C=CCn1c(O)c(C(C)=NCCCN(C)C)c(=O)[nH]c1=O | active: 49.9%
35 | Oc1ccc(Cl)cc1 | inconclusive: 36.6%
36 | COC(=O)[C@H]1[C@H](CO)[C@H]2Cn3c(cccc3=O)[C@@H]1N2C(=O)C1CC1 | inactive: 0.569%
37 | COc1ccc2c(c1)/C(=C/c1cnc[nH]1)C(=O)N2 | inconclusive: 70.9%
